The full ranking holds about 18,000 sequences; the median of “TetR repression strength (sort-seq, GFP reporter)” is about 0.23, and the highest 2% start at about 0.68. Some of the results follow.

Chain of UniProt P04483 (P04483 whole entry): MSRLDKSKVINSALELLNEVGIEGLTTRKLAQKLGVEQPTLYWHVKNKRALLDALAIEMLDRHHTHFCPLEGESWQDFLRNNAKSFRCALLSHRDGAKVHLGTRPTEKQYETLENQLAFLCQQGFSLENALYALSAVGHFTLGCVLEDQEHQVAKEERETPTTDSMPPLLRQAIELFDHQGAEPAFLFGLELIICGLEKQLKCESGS

For the experiment, the target named is TetR (class B, Tn10) (UniProt P04483). As to the kind of experiment: TetR repression strength (sort-seq, GFP reporter) (relative to tetO2 = 1); higher = stronger repression. The conditions noted are these: E. coli. The method, boiled down:
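In LB with 50 µg/mL chloramphenicol, E. coli SIG10-MAX holding a low-copy library with eight randomized operator positions between a constitutive promoter and sfGFP, plus constitutive TetR, grew for 5 h at 37 °C. FACS then sorted 10^6 cells into 13 fluorescence bins for Illumina sequencing of each bin. Repression strength equals the top bin index plus one less the read-weighted mean bin, normalized to the unaltered operator. Values from three independent transformations were averaged when reads were ≥30 in every replicate and the CV was ≤0.5.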
TCCCTTTTAGTGTAGGAGA yielded a TetR repression strength of 0.239. Regarding TCCCTGTAAGTACACGAGA, the TetR repression strength was determined as 0.0138. Under TCCCCACCAGTGGATGAGA stands 1.05; under TCCCGTTGAGTTATAGAGA, 0.37. The sequence TCCCTTTGAGTAATCGAGA returned a TetR repression strength of 0.186.

For the sequence TCCCAGGAAGTAACTGAGA, the TetR repression strength amounted to 0.188. Then TCCCCTTAAGTGACCGAGA, with 0.25; and TCCCCTAGAGTAGCTGAGA, with 0.274; and TCCCGCAGAGTGCATGAGA, with 0.032. TCCCTGCAAGTTGGCGAGA came in with a TetR repression strength of 0.0657. In turn, TCCCCGGCAGTAACGGAGA gave a TetR repression strength of 0.0284.

In turn, TCCCGTAAAGTGCTTGAGA yielded a TetR repression strength of 0.243. In turn, TCCCGCAAAGTTAGCGAGA came in with a TetR repression strength of 0.238. Then TCCCGCTTAGTTTCAGAGA, with 0.18; and TCCCAGGAAGTGACGGAGA, with 0.258. Under TCCCTGATAGTCAGCGAGA stands 0.104; under TCCCCGTCAGTGACAGAGA, 0.531.

The sequence TCCCCAGCAGTGTTCGAGA registered a TetR repression strength of 0.25. As to TCCCAGTAAGTTGTGGAGA, the TetR repression strength came out at 0.265. Then TCCCGGTGAGTGTCGGAGA, with 0.115. As for TCCCGGTCAGTTGCAGAGA, the TetR repression strength was determined as 0.271. For the sequence TCCCGGCAAGTCCGCGAGA, the TetR repression strength stood at 0.181.

TCCCAAAAAGTGTGTGAGA yielded a TetR repression strength of 0.26. The sequence TCCCTCAGAGTGAAAGAGA returned a TetR repression strength of 0.172. As to TCCCGTCGAGTGCCGGAGA, the TetR repression strength amounted to 0.363.

Regarding TCCCAGGCAGTTAGAGAGA, the TetR repression strength is 0.266.

As to TCCCTGAGAGTCCGCGAGA, the TetR repression strength amounted to 0.276. Sequence TCCCACCTAGTGCACGAGA displayed a TetR repression strength of 0.122. Sequence TCCCCGGGAGTGTCTGAGA gave a TetR repression strength of 0.181. TCCCCGGGAGTGGGAGAGA registered a TetR repression strength of 0.182. For TCCCTCTCAGTGCGCGAGA, the TetR repression strength is 0.281. Then TCCCTAAAAGTAGTCGAGA, with 0.471; and TCCCCGCGAGTTGTAGAGA, with 0.0957; and TCCCCAGTAGTCACCGAGA, with 0.194. Then TCCCTCATAGTGGGCGAGA, with 0.213; and TCCCTTCCAGTGTGCGAGA, with 0.322. Under TCCCTCTCAGTAATGGAGA stands 0.425; under TCCCATCAAGTGGAGGAGA, 0.159; under TCCCCGGAAGTGTAAGAGA, 0.323. TCCCGCGTAGTGCAGGAGA gave a TetR repression strength of 0.245. Then TCCCAAAAAGTTACTGAGA, with 0.419; and TCCCGCAGAGTTGGCGAGA, with 0.186; and TCCCGAGGAGTACTGGAGA, with 0.232.

In turn, TCCCGGCCAGTGTTGGAGA yielded a TetR repression strength of 0.226. Sequence TCCCGTGCAGTCGAGGAGA yielded a TetR repression strength of 0.171. Under TCCCCAGGAGTGCGTGAGA stands 0.384; under TCCCTGCGAGTGGCCGAGA, 0.158. As for TCCCCGACAGTTTACGAGA, the TetR repression strength worked out at 0.272. In turn, TCCCATGTAGTCCACGAGA returned a TetR repression strength of 0.169. As to TCCCGAGGAGTGCGCGAGA, the TetR repression strength amounted to 0.117.

In turn, TCCCGATAAGTCAGGGAGA had a TetR repression strength of 0.162. TCCCAGTGAGTGGGAGAGA: the TetR repression strength stood at 0.149. TCCCATTTAGTTACTGAGA had a TetR repression strength of 0.233. Take TCCCTGATAGTACAAGAGA: the TetR repression strength is 0.289. Consider TCCCTGTAAGTGGCCGAGA, for which the TetR repression strength was 0.204. Then TCCCATTTAGTCAACGAGA, with 0.406; and TCCCGTAGAGTCGTTGAGA, with 0.197. Consider TCCCCGCTAGTGTGTGAGA, for which the TetR repression strength turned out to be 0.324. Under TCCCAGCCAGTGGGAGAGA stands 0.113.

On to TCCCTCGGAGTCGAGGAGA, for which the TetR repression strength stood at 0.333. Under TCCCAACTAGTGTTTGAGA stands 0.137; under TCCCCTTCAGTGTACGAGA, 0.517. Under TCCCCAGCAGTACAAGAGA stands 0.285; under TCCCGTATAGTTGTCGAGA, 0.0938. Regarding TCCCAGGTAGTAGTGGAGA, the TetR repression strength was determined as 0.0813. Under TCCCAGCAAGTTGTTGAGA stands 0.157; under TCCCGGGAAGTGTCGGAGA, 0.174.

Take TCCCCCGCAGTTATGGAGA: the TetR repression strength is 0. In turn, TCCCGCCCAGTGCGGGAGA yielded a TetR repression strength of 0.145. Then TCCCTATGAGTGCTCGAGA, with 0.295; and TCCCGGTGAGTCTCGGAGA, with 0.185; and TCCCCAGGAGTGTCTGAGA, with 0.273. As for TCCCGTGCAGTGGACGAGA, the TetR repression strength was determined as 0.242. Under TCCCGACTAGTGCTGGAGA stands 0.267; under TCCCCCATAGTGACCGAGA, 0.481; under TCCCAGACAGTGGCGGAGA, 0.296. For TCCCTTCAAGTAAAAGAGA, the TetR repression strength worked out at 0.00635. Then TCCCATCCAGTGTGAGAGA, with 0.147; and TCCCTTGGAGTCCTGGAGA, with 0.363.

TCCCCAGGAGTGTTTGAGA had a TetR repression strength of 0.458. For the sequence TCCCGTTCAGTGCGGGAGA, the TetR repression strength worked out at 0.0923.

The sequence TCCCGGTCAGTCGCAGAGA yielded a TetR repression strength of 0.129. Then TCCCGGTAAGTATTTGAGA, with 0.615; and TCCCACAAAGTAGTAGAGA, with 0.186; and TCCCATTTAGTCTTCGAGA, with 0.227. The sequence TCCCTGTGAGTCGCAGAGA gave a TetR repression strength of 0.172. Under TCCCACGGAGTCGACGAGA stands 0.263; under TCCCGTGAAGTCACTGAGA, 0.253.

In turn, TCCCTCGGAGTGGAGGAGA had a TetR repression strength of 0.0887. Under TCCCAGGGAGTGGTCGAGA stands 0.152; under TCCCACGGAGTGGTCGAGA, 0.116; under TCCCTTATAGTCGATGAGA, 0.352.

Regarding TCCCACCAAGTGTAGGAGA, the TetR repression strength is 0.214.

Turning to TCCCCGGCAGTCTTGGAGA, the TetR repression strength came to 0.223. Sequence TCCCGAGTAGTGAGGGAGA showed a TetR repression strength of 0.242. Then TCCCGTGGAGTGTTTGAGA, with 0.223. Under TCCCTCACAGTATAAGAGA stands 0.34. For the sequence TCCCTGCTAGTGTTTGAGA, the TetR repression strength came to 0.175. Then TCCCGTCTAGTTTTAGAGA, with 0.311. Take TCCCGGGCAGTCGGTGAGA: the TetR repression strength was found to be 0.245.

In turn, TCCCCACTAGTGGGTGAGA showed a TetR repression strength of 0.361. Then TCCCGTTTAGTGAAGGAGA, with 0.211.

(Values after a collection of fitness landscapes (doi:10.1038/s41467-024-54723-y).)
